For 34 variants, self-cleavage results are on record in the RNAGym collection of RNA variant scans (doi:10.1093/nar/gkz1192).

Read counts are not given, so values of variants with three or more changes are uncertain.

To fix the notation:
B1: CPEB3 Ribozyme (parent)
chain: UAACAGGGGGCCACAGCAGAAGCGUUCACGUCGCAGCCCCUGUCAGAUUCUGGUGAAUCUGCGAAUUCUGCUGUAUAUCUC

The data set covers variants of B1. As to the kind of experiment: self-cleavage, relative activity (ratio to wild type); higher = more cleavage; in vitro, sequencing. The essentials:
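Relative activity compares each variant's cleaved/total read fraction with that of the unmutated ribozyme. To get these fractions, barcoded CPEB3 ribozyme libraries from rounds of error-prone PCR were transcribed with T7 RNA polymerase for 5 hours at 37°C and then given 15 min of DNase I treatment before EDTA was added. The RNAs were reverse transcribed with template switching and sequenced on Illumina, and DNA sequencing linked barcodes to variants. A minimum of 5 reads applied, and three batches were averaged.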
As to UAGCAGGGGGCCACAGCAGAGGCGUUCACGUCGCAGCCCCUGUCAGAUUCUGGUGAAUCUGCGAAUUCUGCCGUAUAUCUC [A3G A21G U72C], the self-cleavage was 0.88.

Take UAGCAGGGGGCCACAGCGGAAGCGUCCACGUCGCAGCCCCUGUCAGGUUCUGGUGAAUCUGCGAAAUCUGCUGUUUAUCUC [A3G A18G U26C A47G U66A A75U]: the self-cleavage was determined as 0.26. Turning to UAGCAGGGGGCCACAGCGGAAGCGUUCACGUCGCAGCCCCUGCCAGAUUCUGGUGAAUCUGCGAAUUCUGCUGAAUACCUC [A3G A18G U43C U74A U78C], the self-cleavage was 0.72. The result for UAGCAGGGGGCCACUGCAGAAGCGAUCACGUCGCAGCCCCUGUCAGAUUCUGGUGGAUCUGCGAAUCCUGCUGUAUACCUC [A3G A15U U25A A56G U67C U78C] reads 0.06; that for UAGCAGGGGGCCACAGCAGGAGCGUUCACGUCGCAGCCCCUGUCAGAUUCUGGUGAAUCUGCGAAUUCUGCUGUAUGUCUC [A3G A20G A77G], 0.87; that for UAGCAGGGGGCCACAGCGGAAGCGUUCACGUCGCGGCCCCUGUCAGAUUCUGGUGAAUCUGCGAAUUCUGCUGUAUAUCUC [A3G A18G A35G], 1.1. In the case of UAGCAGGGGGCCACAGCAGAGGCGUUCACGUCGCAGCCCCUGUCAGAUUCUGGUGAAUCUGCGAAUUCUGCUAUAAAUCUC [A3G A21G G73A U76A] it was 1.04; in that of UAGCAGGGGGCCACAGCUGAAGCGUCCACGUCGCAGCCCCUGUCAGAUUCUGGUGAAUCUGCGAACUCUGCUGUAUAUCUC [A3G A18U U26C U66C], 0.57.

Take UAGCAGGGGGCCACUGCAGAAGCGUUCACGUCGCAGCCCCAGUCAGAUACUGGUGAAUCUGCGAAUUCUGCUGUAUAUCUC [A3G A15U U41A U49A]: the self-cleavage turned out to be 0.39. In the case of UAGCAGGGGGCCACAGCAGAGGCGUUCACGUCGCUGCCCCUGUCAGAUACUGGUGAAUCUGCGAAUUCUGCUGUACAUCUC [A3G A21G A35U U49A U76C] it was 0.15. The result for UAGCAGGGGGCCACAGCAGAAGCGUUCGCGUCGCGGCCCCUGUCAGAUUCUGGUGAAUCUGCGAAUUCUGCUGUGUAUCUC [A3G A28G A35G A75G] reads 1.29; that for UAGCAGGGGGCCACAGCGGAAGCGUUCACGUCGCGGCCCCUGUCAGAUUCUGGUGAAUCUGCGGAUUCCGCUGUAUAUCUC [A3G A18G A35G A64G U69C], 1.26; that for UAGCAGGGGGCCACAGCAGAGGCGUUCACGUCACAGCCCCUGUCAGAUUCUGGUGAAUCUGCGAAUUCUGCUGUAUAUCUC [A3G A21G G33A], 0.13. UAGCAGGGGGCCACAGCAGAUGUGUUCACGAUGCAGCCCCUGUCAGAUUCUGGUGAGUCCGCGAAUUCUGCUGUAUAUCUC [A3G A21U C23U U31A C32U A57G U60C]: the self-cleavage turned out to be 0.16.

As to UAGCAGGGGGCCACAGCGGAAGCGUUCACUUCGCAGCCCCUGUCAGAUUCAGGUGAAUCUGCGAAUUCUGCUGUUUAUCUC [A3G A18G G30U U51A A75U], the self-cleavage stood at 0.17. Regarding UAGCAGGGGGCCACAGCAGAUGCGUUCAUGUCGCUGCCCCUGUCAGAUUCUGGUGAAACUGCGAAUUCUGCUGUAUAUCCC [A3G A21U C29U A35U U58A U80C], the self-cleavage was determined as 0.07. In the case of UAGCAGGGGGCCACAGCGGAAGCGCUCACGUCGCAGCCCCUGCCAGAUUCUGGUGUAUCUGCGAAUUCUGCUGUAUAUCUC [A3G A18G U25C U43C A56U] it was 0.06; in that of UAGCAGGGGGCCACAGCAGGAGCGUUCACGUCGCAGCCCCUGUCAGAUUCUGGUGAAUCUGCGAAUUCUGCCGUAUAUCUC [A3G A20G U72C], 1. In the case of UAGCAGGGGGCCACAGCGGAAGCGUUCACGUCGCAGCCCCUGUCUGAUUCUGGUGAAUCUGCGAAUUCUGCUGUAUAUCCC [A3G A18G A45U U80C] it was 0.32; in that of UAGCAGGGGGCCACAGCGGAAGCGUUCACGUCGCAGCCCCUGCCAGAUCCUGGUGAAUCUGCGAAGUCUGCUGUAUAUCUC [A3G A18G U43C U49C U66G], 0.22.

As to UAGCAGGGGGCCACAGCGGAAGCGAUCACGUCGCAGCCCCUGUCAGAUUCUGGUGAAUCUGCGAAUUCUGCUGUAUAUCUC [A3G A18G U25A], the self-cleavage came out at 0.13. With UAGCAGGGGGCCACAGCUGAAGCGUUCACGUCGCGGCCCCUGUCAGUUUCUGGUGAAUCUGCGAAUUCUGCUGUAUAUCUC [A3G A18U A35G A47U], the self-cleavage turned out to be 0.14. The result for UAGCAGGGGGCCACAGCGGAAGCGUUCACGUCGCAGCCCCUGUCAGACUCUGGUGAAUCUGCGAAAUCUGCUGUAUAUCUC [A3G A18G U48C U66A] reads 0.17; that for UAGCAGGGGGCCACAGCAGGAGCGUUCACGUCGCAGCCCCUGUCAGGUUCUGGUGGAUCUGCGAAAUCAGCUGUAUAUCUC [A3G A20G A47G A56G U66A U69A], 0.2. In the case of UAGCAGGGGGCCACAGCAGAAGCGUUCCCGUCGCAGCCCCCGUCAGAUUCUGGUGAAUCUGCGAAAUCUGCUGUAUAUCUC [A3G A28C U41C U66A] it was 0.19; in that of UAGCAGGGGGCCACAGCAGAGGCGUUCCCGUCGCAGCCCCUGUCAGGUUCUGGUGAUUCUGCGAAUUCUGCUGUAUAUCAC [A3G A21G A28C A47G A57U U80A], 0.13; in that of UAGCAGGGGGCCACAGCCGAAGCGUUCACGUCGCAGCCCCUGUCAGAUUCUGGUGAAUCCGCGAAUUCUGCCGUAUAUCUC [A3G A18C U60C U72C], 0.34. On to UAGCAGGGGGCCACAGCGGAAGCGUUCACGUCGCAGCCCCUGCCAGAUUCUGGAGAACAUGCGAAUUCUGCUGUAUAUCUC [A3G A18G U43C U54A U58C C59A], for which the self-cleavage was 0.13. The result for UAGCAGGGGGCCACAGCAGAUGCGUUCACGUCGCAGCCCCUGGCAGAUUCUGGUGAAUCUGCGAAUUCUGCUGUAUAUCUC [A3G A21U U43G] reads 0.39.

With UAGCAGGGGGCCACAGCAGCAGCGUUCACGUCGCAGCCCCUGUCAGAUUCUGGCGAAUCUGCGAAUUCUGCUGUAUAUCUC [A3G A20C U54C], the self-cleavage was 0.15. Take UAGCAGGGGGCCACUGCAGAAGCGUCCACGUCGCAGCCCCUGUCAGAUUCUGGUGAGUCUGCGAAUUCUGCUGUAUAUCUC [A3G A15U U26C A57G]: the self-cleavage amounted to 0.21.

As for UAGCAGGGGGCCACAGCAGAUGCGUUCGCGUCGCAGCCCCUGUCAGAUUCUGGUGAAUCUGCGAAUUCUGCAGUAUAUCUC [A3G A21U A28G U72A], the self-cleavage amounted to 0.09. In the case of UAGCAGGGGGCCACAGCAGAGGCGUUCACGUCGCAGCCCCUGUCAGAUUCUGGUGAAUCUGCGAAUUCUGCUGUAUAUCAC [A3G A21G U80A] it was 0.9; in that of UAGCAGGGGGCCACUGCUGAAGCGUUCACGUCGGAGCCCCUGUCUGAUUCUGGUGAAUCCGCGAAUUCUGCUGUAUAUCUC [A3G A15U A18U C34G A45U U60C], 0.06.
